# According to the supplement of paper PMC10037445:
# Whole data set: some 2,900 compounds, median “NF-kB SEAP reporter activity, fold change vs agonist alone” near 0.99, cut for the highest 2% near 2.6. The list shows a part of the results.
# Columns and labels:
# RAW-Dual [1] = assay: NF-kB SEAP reporter activity, fold change vs agonist alone; higher = enhanced NF-kB activity
# Method in brief: (§1)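 After 50 nL of library stock was delivered by pin tool to RAW-Dual macrophages (50,000 cells/well, DMEM, 384-well plates), a PRR agonist was added 1 h later and the plates were kept at 37 °C, 5% CO2. Twenty hours later, IRF was read from supernatant by QuantiLuc luminescence and NF-κB by QuantiBlue absorbance at 620 nm. Reporter activity is stated as fold change over agonist-alone wells. Wells with IncuCyte confluency under 70% of agonist controls in both mask sets were counted as cytotoxic.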
# RAW-Dual [2] = assay: NF-kB SEAP reporter activity, fold change vs agonist alone; cytotoxicity flag (confluency mask): not cytotoxic; higher = enhanced NF-kB activity
# Method in brief: as §1
# RAW-Dual [3] = assay: NF-kB SEAP reporter activity, fold change vs agonist alone; cytotoxicity flag (confluency mask): cytotoxic (confluency <70% of control); higher = enhanced NF-kB activity
# Method in brief: as §1
# [4] = library stock concentration (final ~1000-fold dilution): 10 mM, cytotoxicity flag (confluency mask): not cytotoxic, agonist: Imiquimod (TLR7) […]
# [5] = library stock concentration (final ~1000-fold dilution): 10 mM, cytotoxicity flag (confluency mask): not cytotoxic, agonist: MPLA (TLR4) […]
# [6] = agonist: ODN 1826 (TLR9) 0.5 ug/mL
# [7] = agonist: Pam2CSK4 (TLR2/6) 0.1 ug/mL
# [8] = agonist: Pam3CSK4 (TLR2/1) 0.1 ug/mL
smiles,measurement,setting,value
N#Cc1cc2cc(CN3CCC(Nc4ncnc5sc(CC(F)(F)F)cc45)CC3)ccc2[nH]1,NF-kB SEAP reporter activity,RAW-Dual [1]; [4],1.15
same,NF-kB SEAP reporter activity,RAW-Dual [1]; [5],1.25
N#Cc1cc2cc(CN3CCC(Nc4ncnc5sc(CC(F)(F)F)cc45)CC3)ccc2[nH]1 (library stock concentration (final ~1000-fold dilution): 10 mM),NF-kB SEAP reporter activity,RAW-Dual [2]; agonist: LPS (TLR4) 0.1 ug/mL,1.57
same,NF-kB SEAP reporter activity,RAW-Dual [2]; [6],0.19
same,NF-kB SEAP reporter activity,RAW-Dual [2]; [7],1.1
same,NF-kB SEAP reporter activity,RAW-Dual [2]; [8],0.795
CC(=O)OCC1OC([S-])C(OC(C)=O)C(OC(C)=O)C1OC(C)=O.CCP(CC)CC.[Au+] (stereo not given),NF-kB SEAP reporter activity,"RAW-Dual [1]; library stock concentration (final ~1000-fold dilution): 10 mM, cytotoxicity flag (confluency mask): cytotoxic (confluency <70% of control), agonist: Imiquimod (TLR7) […]",0.212
same,NF-kB SEAP reporter activity,"RAW-Dual [1]; library stock concentration (final ~1000-fold dilution): 10 mM, cytotoxicity flag (confluency mask): cytotoxic (confluency <70% of control), agonist: MPLA (TLR4) […]",0.215
CC(=O)OCC1OC([S-])C(OC(C)=O)C(OC(C)=O)C1OC(C)=O.CCP(CC)CC.[Au+] (stereo not given) (library stock concentration (final ~1000-fold dilution): 10 mM),NF-kB SEAP reporter activity,RAW-Dual [3]; agonist: LPS (TLR4) 0.1 ug/mL,0.177
same,NF-kB SEAP reporter activity,RAW-Dual [3]; [6],0.184
same,NF-kB SEAP reporter activity,RAW-Dual [3]; [7],0.0867
same,NF-kB SEAP reporter activity,RAW-Dual [3]; [8],0.137
COC1CC2CCC(C)C(O)(O2)C(=O)C(=O)N2CCCCC2C(=O)OC(C(C)CC2CCC(OP(C)(C)=O)C(OC)C2)CC(=O)C(C)C=C(C)C(O)C(OC)C(=O)C(C)CC(C)C=CC=CC=C1C (stereo not given) (library stock concentration (final ~1000-fold dilution): 10 mM),NF-kB SEAP reporter activity,RAW-Dual [2]; agonist: LPS (TLR4) 0.1 ug/mL,1.05
same,NF-kB SEAP reporter activity,RAW-Dual [2]; [6],0.988
same,NF-kB SEAP reporter activity,RAW-Dual [2]; [7],0.639
same,NF-kB SEAP reporter activity,RAW-Dual [2]; [8],0.767
COC1CC2CCC(C)C(O)(O2)C(=O)C(=O)N2CCCCC2C(=O)OC(C(C)CC2CCC(OP(C)(C)=O)C(OC)C2)CC(=O)C(C)C=C(C)C(O)C(OC)C(=O)C(C)CC(C)C=CC=CC=C1C (stereo not given),NF-kB SEAP reporter activity,RAW-Dual [1]; [4],1.34
same,NF-kB SEAP reporter activity,RAW-Dual [1]; [5],1.24
Cl.Nc1ccc(N=Nc2ccccc2)c(N)n1,NF-kB SEAP reporter activity,RAW-Dual [1]; [4],1.1
same,NF-kB SEAP reporter activity,RAW-Dual [1]; [5],1.08
Cl.Nc1ccc(N=Nc2ccccc2)c(N)n1 (library stock concentration (final ~1000-fold dilution): 10 mM),NF-kB SEAP reporter activity,RAW-Dual [2]; agonist: LPS (TLR4) 0.1 ug/mL,1.22
same,NF-kB SEAP reporter activity,RAW-Dual [2]; [6],0.928
same,NF-kB SEAP reporter activity,RAW-Dual [2]; [7],1.09
same,NF-kB SEAP reporter activity,RAW-Dual [2]; [8],0.933
COc1ccc(-n2c(SCCCN3C(=O)c4cccc5cccc(c45)C3=O)nnc2-c2ccncc2)cc1,NF-kB SEAP reporter activity,RAW-Dual [1]; [4],1.08
same,NF-kB SEAP reporter activity,RAW-Dual [1]; [5],1.32
COc1ccc(-n2c(SCCCN3C(=O)c4cccc5cccc(c45)C3=O)nnc2-c2ccncc2)cc1 (library stock concentration (final ~1000-fold dilution): 10 mM),NF-kB SEAP reporter activity,RAW-Dual [2]; agonist: LPS (TLR4) 0.1 ug/mL,2.06
same,NF-kB SEAP reporter activity,RAW-Dual [2]; [6],1.17
same,NF-kB SEAP reporter activity,RAW-Dual [2]; [7],1.3
same,NF-kB SEAP reporter activity,RAW-Dual [2]; [8],2.18
Cc1cccc(CC(=O)N2CCc3c2ccc(-c2cn(C)c4ncnc(N)c24)c3F)n1,NF-kB SEAP reporter activity,RAW-Dual [1]; [4],0.857
same,NF-kB SEAP reporter activity,RAW-Dual [1]; [5],1.2
Cc1cccc(CC(=O)N2CCc3c2ccc(-c2cn(C)c4ncnc(N)c24)c3F)n1 (library stock concentration (final ~1000-fold dilution): 10 mM),NF-kB SEAP reporter activity,RAW-Dual [2]; agonist: LPS (TLR4) 0.1 ug/mL,2.11
same,NF-kB SEAP reporter activity,RAW-Dual [2]; [6],0.866
same,NF-kB SEAP reporter activity,RAW-Dual [2]; [7],0.941
same,NF-kB SEAP reporter activity,RAW-Dual [2]; [8],1.13
O=C1N[C@@H](Cc2cnc[nH]2)C(=O)N2CCC[C@@H]12,NF-kB SEAP reporter activity,RAW-Dual [1]; [4],0.948
same,NF-kB SEAP reporter activity,RAW-Dual [1]; [5],1.05
O=C1N[C@@H](Cc2cnc[nH]2)C(=O)N2CCC[C@@H]12 (library stock concentration (final ~1000-fold dilution): 10 mM),NF-kB SEAP reporter activity,RAW-Dual [2]; agonist: LPS (TLR4) 0.1 ug/mL,1.27
same,NF-kB SEAP reporter activity,RAW-Dual [2]; [6],1.07
same,NF-kB SEAP reporter activity,RAW-Dual [2]; [7],0.988
same,NF-kB SEAP reporter activity,RAW-Dual [2]; [8],0.978
Cc1c(-c2cnccn2)ssc1=S,NF-kB SEAP reporter activity,RAW-Dual [1]; [4],0.94
same,NF-kB SEAP reporter activity,RAW-Dual [1]; [5],1.28
Cc1c(-c2cnccn2)ssc1=S (library stock concentration (final ~1000-fold dilution): 10 mM),NF-kB SEAP reporter activity,RAW-Dual [2]; agonist: LPS (TLR4) 0.1 ug/mL,0.927
same,NF-kB SEAP reporter activity,RAW-Dual [2]; [6],0.876
same,NF-kB SEAP reporter activity,RAW-Dual [2]; [7],0.523
same,NF-kB SEAP reporter activity,RAW-Dual [2]; [8],0.616
C(=C\c1ccccc1)/CN1CCN(C(c2ccccc2)c2ccccc2)CC1 (library stock concentration (final ~1000-fold dilution): 10 mM),NF-kB SEAP reporter activity,RAW-Dual [2]; agonist: LPS (TLR4) 0.1 ug/mL,1.23
same,NF-kB SEAP reporter activity,RAW-Dual [2]; [6],0.987
same,NF-kB SEAP reporter activity,RAW-Dual [2]; [7],0.964
same,NF-kB SEAP reporter activity,RAW-Dual [2]; [8],0.976
C(=C\c1ccccc1)/CN1CCN(C(c2ccccc2)c2ccccc2)CC1,NF-kB SEAP reporter activity,RAW-Dual [1]; [5],1.04
CC(=O)c1c(C)c2cnc(Nc3ccc(N4CCNCC4)cn3)nc2n(C2CCCC2)c1=O.O=S(=O)(O)CCO,NF-kB SEAP reporter activity,"RAW-Dual [1]; library stock concentration (final ~1000-fold dilution): 10 mM water, cytotoxicity flag (confluency mask): not cytotoxic, agonist: Imiquimod (TLR7) […]",0.674
same,NF-kB SEAP reporter activity,"RAW-Dual [1]; library stock concentration (final ~1000-fold dilution): 10 mM water, cytotoxicity flag (confluency mask): not cytotoxic, agonist: MPLA (TLR4) […]",1.09
CC(=O)c1c(C)c2cnc(Nc3ccc(N4CCNCC4)cn3)nc2n(C2CCCC2)c1=O.O=S(=O)(O)CCO (library stock concentration (final ~1000-fold dilution): 10 mM water),NF-kB SEAP reporter activity,RAW-Dual [2]; agonist: LPS (TLR4) 0.1 ug/mL,1.71
same,NF-kB SEAP reporter activity,RAW-Dual [2]; [6],0.449
same,NF-kB SEAP reporter activity,RAW-Dual [2]; [7],0.752
same,NF-kB SEAP reporter activity,RAW-Dual [2]; [8],1.29
NS(=O)(=O)c1ccccc1 (library stock concentration (final ~1000-fold dilution): 10 mM),NF-kB SEAP reporter activity,RAW-Dual [2]; agonist: LPS (TLR4) 0.1 ug/mL,1.04
same,NF-kB SEAP reporter activity,RAW-Dual [2]; [6],0.987
same,NF-kB SEAP reporter activity,RAW-Dual [2]; [7],1.07
same,NF-kB SEAP reporter activity,RAW-Dual [2]; [8],0.771
NS(=O)(=O)c1ccccc1,NF-kB SEAP reporter activity,RAW-Dual [1]; [5],1.11
Cn1cnc([N+](=O)[O-])c1Sc1ncnc2nc[nH]c12 (library stock concentration (final ~1000-fold dilution): 10 mM),NF-kB SEAP reporter activity,RAW-Dual [2]; agonist: LPS (TLR4) 0.1 ug/mL,1.06
same,NF-kB SEAP reporter activity,RAW-Dual [2]; [6],0.973
same,NF-kB SEAP reporter activity,RAW-Dual [2]; [7],0.955
same,NF-kB SEAP reporter activity,RAW-Dual [2]; [8],1.06
Cn1cnc([N+](=O)[O-])c1Sc1ncnc2nc[nH]c12,NF-kB SEAP reporter activity,RAW-Dual [1]; [4],1.01
same,NF-kB SEAP reporter activity,RAW-Dual [1]; [5],0.773
CCC1C(=O)N(C)c2cnc(Nc3ccc(C(=O)NC4CCC(N5CCN(CC6CC6)CC5)CC4)cc3OC)nc2N1C(C)C (stereo not given),NF-kB SEAP reporter activity,RAW-Dual [1]; [4],0.55
same,NF-kB SEAP reporter activity,RAW-Dual [1]; [5],0.684
CCC1C(=O)N(C)c2cnc(Nc3ccc(C(=O)NC4CCC(N5CCN(CC6CC6)CC5)CC4)cc3OC)nc2N1C(C)C (stereo not given) (library stock concentration (final ~1000-fold dilution): 10 mM),NF-kB SEAP reporter activity,RAW-Dual [2]; agonist: LPS (TLR4) 0.1 ug/mL,5.71
same,NF-kB SEAP reporter activity,RAW-Dual [2]; [6],0.977
same,NF-kB SEAP reporter activity,RAW-Dual [2]; [7],1.95
same,NF-kB SEAP reporter activity,RAW-Dual [2]; [8],0.886
C=CC(=O)N1CCCC(n2c(=O)n(-c3ccc(Oc4ccccc4)cc3)c3c(N)ncnc32)C1 (stereo not given) (library stock concentration (final ~1000-fold dilution): 10 mM),NF-kB SEAP reporter activity,RAW-Dual [2]; agonist: LPS (TLR4) 0.1 ug/mL,0.632
same,NF-kB SEAP reporter activity,RAW-Dual [2]; [6],0.727
same,NF-kB SEAP reporter activity,RAW-Dual [2]; [7],0.79
same,NF-kB SEAP reporter activity,RAW-Dual [2]; [8],0.831
